# Results from publication PMC4242493.
# The other results are listed elsewhere or left out. The list includes weakly bound sequences.
# Molecular target: MaxL homodimer (UniProt P61244)
# Test: universal protein-binding microarray (PBM)
# Conditions: PBS-based mixture, 10 nM His-tagged protein dimer, 2% milk, 200 ng/uL BSA, 50 ng/uL salmon testes DNA, 0.02% TX-100; detection with Alexa 488 anti-His …; high values mean tight binding; most listed sequences are background and not binding sites; double strand, one strand shown
# Chain of UniProt P61244 (P61244 whole entry): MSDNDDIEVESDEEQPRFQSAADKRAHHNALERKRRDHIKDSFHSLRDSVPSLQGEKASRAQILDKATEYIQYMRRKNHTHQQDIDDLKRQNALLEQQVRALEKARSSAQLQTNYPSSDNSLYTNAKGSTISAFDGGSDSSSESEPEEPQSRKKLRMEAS
row,Sequence,binding signal (normalized occupancy)
1,AGCATGTC,0.1
2,AAGCTCCT,0.0659
3,CAGCAGGA,0.0731
4,GGAGAGTA,0.0751
5,AATCTGCC,0.0731
6,CTTGCTGA,0.0724
7,ATGCACTC,0.0862
8,TCGTAACA,0.0767
9,CGTGCCGC,0.0875
10,CACAGGCG,0.0711
11,CCAGGCTA,0.0722
12,ATCCGATG,0.0766
13,GTGGCTTA,0.0837
14,AGTTCTGC,0.0709
15,AGCCGCCT,0.0668
16,AGCACTTA,0.0747
17,ATATACCG,0.087
18,GCCACGCC,0.0925
19,AACTACCA,0.075
20,CAGAAGGC,0.0707
21,ATCCTAGC,0.0775
22,AGGCACCT,0.078
23,ACTGGCCC,0.0649
24,ACACAAGC,0.0739
25,CCAATAGA,0.0735

row,Sequence,binding signal (normalized occupancy)
1,CCGTAATC,0.0712
2,AAACGAGA,0.0701
3,CGAATAAG,0.0736
4,CCTACGCG,0.0802
5,AAGAGTCG,0.0695
6,ACACTGGC,0.0774
7,GAAAAGGA,0.074
8,ATCAGCTA,0.0696
9,ATTTGATC,0.0756
10,CAGGACGA,0.0712
11,AAGACGGC,0.07
12,ATCCGCAG,0.0714
13,AACGTACC,0.08
14,GCCCATGA,0.0786
15,GCCCCTAA,0.0726
16,CACAACAA,0.0752
17,AAAAGAGT,0.0704
18,AGTCTCCC,0.0733
19,AGCAGCAC,0.0724
20,AAGACCGA,0.0693
21,CGCGTACA,0.0792
22,GTAAAAGA,0.0725
23,TGAAAGAA,0.0757
24,ATGAAGCC,0.0711
25,GCCAAAAC,0.0716

row,Sequence,binding signal (normalized occupancy)
1,TGGGCCAA,0.0724
2,CCTGAGAC,0.0712
3,AGTCATTG,0.0769
4,GCTGAAAC,0.0743
5,ATGAGCTA,0.0792
6,AGTGCTAA,0.074
7,AGTAACTA,0.0739
8,CAGTGAGA,0.0736
9,ACTTGGAA,0.0722
10,ACAGGTAG,0.0749
11,CTCGACAC,0.0782
12,AAACCAGT,0.0721
13,GTGTTAGA,0.0823
14,AACAAAGC,0.0681
15,TAGTGACA,0.0792
16,CATCAGAA,0.0803
17,AGAAACCG,0.0723
18,AACGGACC,0.0686
19,TGCTCCCA,0.076
20,CTTATGCC,0.0794
21,CAGTTTTA,0.0693
22,CCGCTCAC,0.0669
23,AGCACTAC,0.0757
24,CCTTGCTC,0.0719
25,AGTTGTAT,0.0775

row,Sequence,binding signal (normalized occupancy)
1,CAACCCAG,0.0693
2,ATTGGTTG,0.0742
3,AGAATAGG,0.0758
4,GATCTTGA,0.0811
5,AACGCGAA,0.0761
6,CGTATAGC,0.0719
7,ATCGATTG,0.0721
8,AGTGCCGC,0.0745
9,CCACTTGA,0.0741
10,GGTGATAC,0.0811
11,CTGCGCTC,0.0691
12,AAATAGCT,0.0707
13,CCGGCTTA,0.067
14,CACTCCGC,0.0748
15,CTCGGTTC,0.0712
16,CAGCGTCC,0.069
17,CCACCAGA,0.0816
18,CATTTTCA,0.0798
19,CTCCTCCC,0.0718
20,CAACTTTA,0.0732
21,ACGGAGAG,0.0726
22,CAAACACC,0.0771
23,AGATTCCA,0.0786
24,GTCGCCAA,0.0726
25,AAACGTTC,0.0731

row,Sequence,binding signal (normalized occupancy)
1,AATTACCT,0.0757
2,CCTTTACA,0.0797
3,AAGTTAGT,0.0669
4,CTTTTGAC,0.0784
5,AGCCGACT,0.0671
6,AACGAGCT,0.0726
7,CAATACAG,0.0779
8,AAACCCTC,0.0736
9,AGTGGAGG,0.0754
10,ATTTCGTG,0.0757
11,ACCGTTTG,0.0712
12,AGCGGCGG,0.0668
13,ATATCCGG,0.076
14,GTGATAAA,0.0811
15,CTGCATGA,0.083
16,ACGATGCG,0.0781
17,ATTCGTTA,0.0786
18,GCGGATAC,0.0766
19,CCTTCGGA,0.0651
20,TCCGCTAA,0.0692
21,CGGTTTGC,0.0697
22,AGACGCGA,0.071
23,CTAGAAAG,0.0742
24,ACCTCCTC,0.0717
25,AAACTTGA,0.0812

row,Sequence,binding signal (normalized occupancy)
1,CATTACCC,0.0825
2,GCGCCAAC,0.0726
3,AATCCATA,0.0859
4,ATGGGACA,0.0837
5,CACATCGC,0.0785
6,CACTGTTC,0.0718
7,AATGGCCA,0.0755
8,ATCGAGAC,0.0714
9,GAGGCGCC,0.0651
10,CCTACCTC,0.0702
11,GAAGGAGA,0.0816
12,ACCCCCGC,0.084
13,ATATTTGG,0.0808
14,ATAAACGC,0.0803
15,GGAGGCAA,0.0756
16,GCGTATGA,0.0735
17,GCTTATCC,0.0762
18,ACAAATGA,0.0834
19,CCCGCTAC,0.0704
20,ATGTCCTG,0.0716
21,AATAACAG,0.0771
22,ATTGAGAG,0.0765
23,AATGCTGC,0.0788
24,GACGTGTA,0.0816
25,CACCGCGC,0.0783

row,Sequence,binding signal (normalized occupancy)
1,GGCCGTAC,0.0801
2,AAAATTCA,0.072
3,AGGCCAGA,0.0668
4,ACATCACA,0.0901
5,CACAGTTA,0.078
6,GGCTTCCC,0.0697
7,CACGGCCG,0.0736
8,CGTAGTCA,0.0766
9,ATATTGCG,0.0786
10,AGATGACG,0.0757
11,AAGTCTTC,0.0732
12,TACCAAAA,0.0707
13,CTTCGTGA,0.0722
14,GATAACAC,0.0816
15,CCACCCAC,0.0886
16,GGCAATAC,0.076
17,TCTGCACA,0.0849
18,ACCATCCA,0.0817
19,AATTTATG,0.0806
20,CGGAGCAC,0.0746
21,ATTGACAC,0.0832
22,CGTTTAGC,0.0714
